Results from PubChem BioAssay (NCATS).
Where “and” joins values, the source holds several entries; their conditions need not be identical. Identical values can stand only once. Inconclusive results, whose numbers are uncertain, are shown with a selection of clear calls. Where the call is inconclusive, the potency comes from a doubtful curve fit. Calls of active or inactive are those of the source. Calls come from the whole dose curve; as a rule, active = well fitted curve in the direction sought with a large enough effect; inconclusive = small, poorly fitted or top-dose-only effect, or another doubt; inactive = no such curve, though single readings can be large; an effect the other way counts as inactive or inconclusive.

Key:
[1] = qHTS for Inhibitors of Plasmodium falciparum (DD2) proliferation (AID 504314);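 for activity, negative = inhibition: parasite DNA measured by SYBR Green fluorescence after red cell lysis; plate controls were DMSO vehicle for no effect and artemisinin wells for full effect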; conditions: P. falciparum Dd2 in erythrocytes, SYBR Green growth, 72 h; activity, negative = inhibition: at 6.11 µM (top of the series)
Summary of the method: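 Erythrocytes infected with P. falciparum Dd2 (0.3% parasitemia, 2.5% hematocrit) exposed to compound 72 h at 37C, 5% CO2. Parasite DNA quantified by SYBR Green fluorescence after saponin/Triton lysis overnight; normalized to 0.29 uM artemisinin and DMSO.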

[2] = qHTS for Inhibitors of Plasmodium falciparum (GB4) proliferation (AID 504315); note: nearly all actives have a fitted effect of over 50% in size;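 for activity change, negative = inhibition: 0% = DMSO vehicle and -100% = 0.29 µM artemisinin control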; conditions: P. falciparum GB4 in erythrocytes, SYBR Green DNA, 72 h; activity change, negative = inhibition: at 6.7 µM (top of the series)
Summary of the method: (§1)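 Erythrocytes infected with P. falciparum line (0.3% parasitemia, 2.5% hematocrit final) incubated with compounds 72 h at 37 °C, 5% CO2; SYBR Green lysis buffer added, fluorescence read next day. Normalized to 0.29 uM artemisinin and DMSO.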

[3] = qHTS for Inhibitors of Plasmodium falciparum (7G8) proliferation (AID 504316); note: nearly all actives have a fitted effect of over 65% in size;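 for activity change, negative = inhibition: 0% = DMSO vehicle and -100% = 0.29 µM artemisinin full kill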; conditions: P. falciparum 7G8 in erythrocytes, SYBR Green DNA, 72 h; activity change, negative = inhibition: at 6.7 µM (top of the series)
Summary of the method: as §1

[4] = qHTS for Inhibitors of Plasmodium falciparum (HB3) proliferation (AID 504318); note: nearly all actives have a fitted effect of over 60% in size;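 for activity change, negative = inhibition: 0% = DMSO vehicle and -100% = artemisinin control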; conditions: P. falciparum HB3 in erythrocytes, SYBR Green DNA, 72 h; activity change, negative = inhibition: at 7.21 µM (top of the series)
Summary of the method: as §1
Potency is the fitted concentration of half-maximal effect; tags give direction and shape of the fitted curve.

Compound | Potency [1] | Potency [2] | Potency [3] | activity, negative = inhibition [1] | Potency [4] | activity change, negative = inhibition [2]
O=C1C2=C(C(=O)c3ccccc31)[C@H]1O[C@](c3ccsc3)(Cc3c1ccc1ccccc31)O2 | inconclusive: 1.5 µM [inhibitor, single point] | inactive | inconclusive: 2.39 µM [inhibitor, single point] |  |  | 
COc1ccc(C=CNC(=O)Cc2ccc(OC)c(OC)c2)cc1 | inactive | inactive | inconclusive: 3.38 µM [inhibitor, partial curve, poor fit] |  |  | 
C=CCNC(=O)N1CCc2nc(COc3ccccc3)c3c(c2C1)CO[C@@H](C)C3 |  | inactive | inconclusive: 4.26 µM [inhibitor, partial curve, poor fit] | inactive: -0.893% [at 1.12 µM] |  | 
C[C@@H]1CC[C@H]2C(=O)O[C@@H](COc3ccc(C(C)(C)C)cc3)CN2[C@H]1c1ccc(Br)cc1 | inactive | inactive | inconclusive: 4.26 µM [inhibitor, single point] |  |  | 
C=CCCCN1C(=O)NC(c2ccccc2)C(C(=O)OC)=C1C (centres undefined) | inactive | inconclusive: 0.0034 µM [inhibitor, full curve] | inactive |  | inactive | 
COC(=O)C1=C(C)N(Cc2ccccc2)C(=O)NC1CCc1ccccc1 (centres undefined) | inconclusive: 0.0378 µM [inhibitor, full curve, poor fit] |  | inconclusive: 0.849 µM [inhibitor, single point] |  |  | inconclusive: -22.1% [inhibitor]
O=C1CCCC2=C1[C@H]1O[C@](c3ccsc3)(Cc3c1ccc1ccccc31)O2 | inconclusive: 4.24 µM [inhibitor, single point] | inactive | inconclusive: 1.69 µM [inhibitor, single point] |  |  | 
C=CC[C@@H]1C=C[C@H](ON=C2c3cc(OC)ccc3O[C@H](c3cccc(OC)c3)[C@@H]2O)[C@H](CO)O1 | inactive | inconclusive: 1.9 µM [activator, partial curve, poor fit] | inconclusive: 0.0151 µM [inhibitor, partial curve, poor fit] |  |  | 
CC(C)(C)c1ccc(O[C@@H]2[C@H](O)CO[C@@H]2C=CC#Cc2ccccc2)cc1 | inconclusive: 2.12 µM [inhibitor, single point] | inconclusive: 1.9 µM [inhibitor, single point] | inconclusive: 2.39 µM [inhibitor, single point] |  | inconclusive: 3.79 µM [inhibitor, single point] | 
CC1(OC(=O)c2ccc(Cl)nc2)C(=O)Cc2cc(-c3ccsc3)ncc2C1=O (centres undefined) | inconclusive: 0.948 µM [inhibitor, partial curve] | inactive | inconclusive: 1.51 µM [inhibitor, partial curve] and inconclusive: 1.69 µM [inhibitor, partial curve, poor fit] |  | inactive | 
O=C1N(Cc2ccc(F)cc2)c2ccccc2[C@@]12O[C@H](COc1ccccc1)CC1CCCC12 (some centres undefined) | inconclusive: 0.0005 µM [inhibitor] | inconclusive: 0.0478 µM [inhibitor, full curve, poor fit] | inconclusive: 3.38 µM [inhibitor, partial curve, poor fit] |  |  | 
COC(=O)CC(Oc1c(C)n(C)c2ccccc2c1=O)c1ccccc1 (centres undefined) | inactive | inconclusive: 2.69 µM [inhibitor, partial curve, poor fit] | inactive |  |  | 
C=CCN=C1NC(c2cccc(F)c2)C(C(=O)OC)=C(C)N1Cc1ccccc1 (centres undefined) | inconclusive: 1.69 µM [inhibitor, partial curve, poor fit] | inactive | inactive |  |  | 
CCCCn1c(C)cc2c(c1=O)[C@H]1O[C@](CCCC)(Cc3cc(C#N)ccc31)O2 | inconclusive: 4.24 µM [inhibitor, single point] | inconclusive: 1.51 µM [inhibitor, single point] | active: 1.9 µM |  |  | 
C=CC[C@@H]1C=C[C@H](ON=C(C)CCN2CCc3nc(CC)c(CC)cc3C2)[C@H](CO)O1 | inconclusive: 1.5 µM [inhibitor, partial curve] | inconclusive: 4.26 µM [inhibitor, single point] | active: 1.69 µM |  | inconclusive: 1.51 µM [inhibitor, partial curve] | 
